Results on 55 molecules are retold here after patent publication US20060160798A1, “Viral polymerase inhibitors” (Boehringer Ingelheim (Canada) Ltd., priority 2001, published 2006).

SMILES strings stand for the structures.

For the first assay, the system named is Huh7 cells that stably maintain a subgenomic HCV replicon (S22.3 cell-line). Put plainly: Cell based HCV RNA replication assay (S22.3 replicon cells, real-time RT-PCR). The following applies: Hepatitis C virus, Huh-7, 72 h, S22.3 cells, 72 hours incubation, HCV RNA by RT-PCR.
Molecule `O=C(O)/C=C/c1ccc(NC(=O)C2(NC(=O)c3ccc4c(C5CCCCC5)c(-c5ccoc5)n(Cc5ccncc5)c4c3)CCCC2)cc1` [Entry 2043] displayed an EC50 of less than 500 nM.

Molecule `C[C@@H](NC(=O)c1ccc2c(C3CCCCC3)c(-c3ccoc3)[nH]c2c1)C(=O)Nc1ccc(/C=C/C(=O)O)cn1` [Entry 2009] had an EC50 of 500 to 5000 nM.

`CC(C)(NC(=O)c1ccc2c(C3CCCC3)c(-c3ccccn3)sc2c1)C(=O)Nc1ccc(/C=C/C(=O)O)cc1` [Entry 8002]: the EC50 fell in the range of 500 to 5000 nM.

As to `CN1CCC(NC(=O)c2ccc3c(C4CCCC4)c(-c4ccccn4)n(C)c3c2)(c2nc3ccc(C=CC(=O)O)cc3[nH]2)CC1` [Entry 1020], the EC50 is less than 500 nM.

Turning to `O=C(O)/C=C/c1ccc(NC(=O)C2(NC(=O)c3ccc4c(C5CCCCC5)c(-c5ccsc5)[nH]c4c3)CCCC2)cc1` [Entry 2038], the EC50 was less than 500 nM.

As to `Cn1c(-c2ccccc2)c(C2CCCCC2)c2ccc(C(=O)NC(C)(C)C(=O)Nc3ccc(/C=C/C(=O)O)cc3)cc21` [Entry 2062], the EC50 is less than 500 nM.

`O=C(O)/C=C/c1ccc(NC(=O)C2(NC(=O)c3ccc4c(C5CCCCC5)c(-c5ccoc5)[nH]c4c3)CCCC2)cc1` [Entry 2036]: the EC50 is less than 500 nM.

Turning to `C/C(=C\C(=O)O)c1ccc(NC(=O)C2(NC(=O)c3ccc4c(C5CCCCC5)c(-c5ccoc5)[nH]c4c3)CCCC2)cc1` [Entry 2056], the EC50 was less than 500 nM.

Take `O=C(O)/C=C/c1ccc(NC(=O)C2(NC(=O)c3ccc4c(C5CCCCC5)c(Br)[nH]c4c3)CCCC2)cc1` [Entry 2003]: the EC50 fell in the range of 500 to 5000 nM.

Turning to `Cc1c(C(=O)O)sc2ccc(NC(=O)[C@]3(NC(=O)c4ccc5c(C6CCCC6)c(-c6ccccn6)n(C)c5c4)CCN(C)C3)cc12` [Entry 1013], the EC50 is less than 500 nM.

In the case of `CC(C)(NC(=O)c1ccc2c(C3CCCCC3)c(-c3ccsc3)[nH]c2c1)C(=O)Nc1ccc(-c2nc(C(=O)O)cs2)cc1` [Entry 2019], the EC50 lay in the range of 500 to 5000 nM.

With `Cn1c(-c2ccccn2)c(C2CCCCC2)c2ccc(C(=O)NC3(C(=O)Nc4ccc5[nH]c(C(=O)O)c(I)c5c4)CCCNC3)cc21` (stereo not shown) [Entry 2110], the EC50 was less than 500 nM.

As for `Cn1c(-c2ccccn2)c(C2CCCCC2)c2ccc(C(=O)NC(C)(C)C(=O)Nc3ccc(-c4nc(C(N)=O)cs4)cc3)cc21` [Entry 2074], the EC50 is less than 500 nM.

Molecule `Cn1c(-c2ccccn2)c(C2CCCC2)c2ccc(C(=O)NC3(/C=C/c4ccc(/C=C/C(=O)O)cc4)CCCC3)cc21` [Entry 1015] gave an EC50 of less than 500 nM.

With `CC(C)(NC(=O)c1ccc2c(C3CCCCC3)c(-c3ccoc3)[nH]c2c1)C(=O)Nc1ccc(-c2ccc(C(=O)O)o2)cc1` [Entry 2053], the EC50 is less than 500 nM.

`O=C(O)Cn1ccc2cc(NC(=O)C3(NC(=O)c4ccc5c(C6CCCCC6)c(-c6ccoc6)[nH]c5c4)CCCC3)ccc21` [Entry 2008] had an EC50 of 500 to 5000 nM.

On to `CCN1CCC(NC(=O)c2ccc3c(C4CCCCC4)c(-c4ccoc4)[nH]c3c2)(C(=O)Nc2ccc(/C=C/C(=O)O)cc2)CC1` [Entry 2088], for which the EC50 is less than 500 nM.

The same assay, now with this note: Hepatitis C virus, Huh-7, Table 6.
Turning to `Cc1ccc(-c2c(C3CCCC3)c3ccc(C(=O)NC4(C(=O)Nc5ccc(/C=C/C(=O)O)cc5)CCN(C)CC4)cc3n2C)nc1` [Entry 6103], the EC50 was less than 500 nM.

Molecule `CCCNc1nc(-c2c(C3CCCC3)c3ccc(C(=O)NC4(C(=O)Nc5ccc(/C=C/C(=O)O)cc5)CCC4)cc3n2C)cs1` [Entry 6076] yielded an EC50 of less than 500 nM.

In the case of `Cn1c(-c2csc(NC(=O)CC(C)(C)C)n2)c(C2CCCC2)c2ccc(C(=O)NC3(C(=O)Nc4ccc(/C=C/C(=O)O)cc4)CCCC3)cc21` [Entry 6095], the EC50 is less than 500 nM.

As for `Cn1c(-c2csc(NC3CCCC3)n2)c(C2CCCC2)c2ccc(C(=O)NC(C)(C)C(=O)Nc3ccc(/C=C/C(=O)O)cc3)cc21` [Entry 6033], the EC50 is less than 500 nM.

As for `CC(C)N(C)c1nc(-c2c(C3CCCC3)c3ccc(C(=O)NC(C)(C)C(=O)Nc4ccc(/C=C/C(=O)O)cc4)cc3n2C)cs1` [Entry 6034], the EC50 was less than 500 nM.

Molecule `Cn1c(-c2csc(NCCN3CCOCC3)n2)c(C2CCCC2)c2ccc(C(=O)NC(C)(C)C(=O)Nc3ccc(/C=C/C(=O)O)cc3)cc21` [Entry 6025] came in with an EC50 of less than 500 nM.

`CC(=O)Nc1ccc(-c2c(C3CCCC3)c3ccc(C(=O)NC4(C(=O)Nc5ccc(/C=C/C(=O)O)cc5)CCC4)cc3n2C)cc1C` [Entry 6006]: the EC50 was less than 500 nM.

`CNc1nc(-c2c(C3CCCC3)c3ccc(C(=O)NC4(C(=O)Nc5ccc(/C=C/C(=O)O)cc5)CCC4)cc3n2C)cs1` [Entry 6072]: the EC50 is less than 500 nM.

Molecule `Cn1c(-c2ncccn2)c(C2CCCC2)c2ccc(C(=O)NC3(C(=O)Nc4ccc(/C=C/C(=O)O)cc4)CCC3)cc21` [Entry 6111] showed an EC50 of less than 500 nM.

`Cn1c(-c2cocn2)c(C2CCCC2)c2ccc(C(=O)NC3(C(=O)Nc4ccc(/C=C/C(=O)O)cc4)CCCC3)cc21` [Entry 6098] yielded an EC50 of less than 500 nM.

`CC(C)C(=O)Nc1nc(-c2c(C3CCCC3)c3ccc(C(=O)NC4(C(=O)Nc5ccc(/C=C/C(=O)O)cc5)CCC4)cc3n2C)cs1` [Entry 6079] gave an EC50 of less than 500 nM.

Regarding `Cc1ccc(-c2c(C3CCCC3)c3ccc(C(=O)NC4(C(=O)Nc5ccc(/C=C/C(=O)O)cc5)CCN(C)CC4)cc3n2C)cn1` [Entry 6062], the EC50 was less than 500 nM.

As to `CCC(CC)Nc1nc(-c2c(C3CCCC3)c3ccc(C(=O)NC(C)(C)C(=O)Nc4ccc(/C=C/C(=O)O)cc4)cc3n2C)cs1` [Entry 6031], the EC50 was less than 500 nM.

In the case of `CN1CCC(NC(=O)c2ccc3c(C4CCCC4)c(-c4cccc(N)c4)n(C)c3c2)(C(=O)Nc2ccc(/C=C/C(=O)O)cc2)CC1` [Entry 6102], the EC50 was less than 500 nM.

`CCNc1nc(-c2c(C3CCCC3)c3ccc(C(=O)NC(C)(C)C(=O)Nc4ccc(/C=C/C(=O)O)cc4)cc3n2C)cs1` [Entry 6010] displayed an EC50 of less than 500 nM.

For `Cn1c(-c2ccc(C(F)(F)F)cn2)c(C2CCCC2)c2ccc(C(=O)NC3(C(=O)Nc4ccc(/C=C/C(=O)O)cc4)CCCC3)cc21` [Entry 6042], the EC50 was less than 500 nM.

For the molecule `CNc1nc(-c2c(C3CCCC3)c3ccc(C(=O)NC(C)(C)C(=O)Nc4ccc(/C=C/C(=O)O)cc4)cc3n2C)cs1` [Entry 6009], the EC50 was less than 500 nM.

The molecule `Cc1nc(-c2c(C3CCCC3)c3ccc(C(=O)NC4(C(=O)Nc5ccc(/C=C/C(=O)O)cc5)CCCC4)cc3n2C)cs1` [Entry 6090] returned an EC50 of less than 500 nM.

As to `CC(C)OC(=O)Nc1nc(-c2c(C3CCCC3)c3ccc(C(=O)NC(C)(C)C(=O)Nc4ccc(/C=C/C(=O)O)cc4)cc3n2C)cs1` [Entry 6028], the EC50 is less than 500 nM.

`Cn1c(-c2ccccn2)c(C2CCCC2)c2ccc(C(=O)NC3(C(=O)Nc4ccc(/C=C/C(=O)O)cc4)CCC3)cc21` [Entry 6064]: the concentration for a half-maximal effect (EC50) was less than 500 nM.

Staying with this assay, now noted: Hepatitis C virus, Huh-7, Table 7.
Turning to `Cn1c(-c2nccs2)c(C2CCCC2)c2ccc(C(=O)NC3(C(=O)Nc4ccc(-c5ccc(C(=O)O)o5)cc4)CCC3)cc21` [Entry 7047], the EC50 is less than 500 nM.

`Cn1c(-c2ccncc2)c(C2CCCC2)c2ccc(C(=O)NC3(C(=O)Nc4ccc(-c5ccc(C(=O)O)o5)cc4)CCC3)cc21` [Entry 7040] displayed an EC50 of less than 500 nM.

`Cc1cc(NC(=O)C2(NC(=O)c3ccc4c(C5CCCC5)c(-c5ccccn5)n(C)c4c3)CCC2)ccc1/C=C/C(=O)O` [Entry 7001] had an EC50 of less than 500 nM.

The molecule `Cn1c(-c2cccc(N)n2)c(C2CCCC2)c2ccc(C(=O)NC3(C(=O)Nc4ccc(-c5ccc(C(=O)O)o5)cc4)CCC3)cc21` [Entry 7024] had an EC50 of less than 500 nM.

As for `CC(C)N1CCC(NC(=O)c2ccc3c(C4CCCC4)c(-c4ccccn4)n(C)c3c2)(C(=O)Nc2ccc(C=CC(=O)O)cc2)C1` (stereo not shown) [Entry 7060], the EC50 is less than 500 nM.

In the case of `CCc1ccnc(-c2c(C3CCCC3)c3ccc(C(=O)NC4(C(=O)Nc5ccc6c(c5)cc(C(=O)O)n6C)CCC4)cc3n2C)c1` [Entry 7045], the EC50 was in the range of 500 to 5000 nM.

With `Cc1c(C(=O)O)sc2ccc(NC(=O)[C@]3(NC(=O)c4ccc5c(C6CCCC6)c(-c6ccccn6)n(C)c5c4)CCN(C)C3)cc12` [Entry 7057], the EC50 is less than 500 nM.

Molecule `Cc1ccc(-c2c(C3CCCC3)c3ccc(C(=O)NC4(C(=O)Nc5ccc6c(c5)cc(C(=O)O)n6C)CCC4)cc3n2C)nc1` [Entry 7031] came in with an EC50 of less than 500 nM.

In the case of `C/C(=C\c1ccc(NC(=O)C2(NC(=O)c3ccc4c(C5CCCC5)c(-c5ccc(N)cc5)n(C)c4c3)CCC2)cc1)C(=O)O` [Entry 7018], the EC50 is less than 500 nM.

The molecule `CN1CC[C@@](NC(=O)c2ccc3c(C4CCCC4)c(-c4ccccn4)n(C)c3c2)(C(=O)Nc2ccc(/C=C/C(=O)O)cc2)C1` [Entry 7058] registered an EC50 of less than 500 nM.

The molecule `Cc1c(C(=O)O)sc2ccc(NC(=O)[C@]3(NC(=O)c4ccc5c(C6CCCC6)c(-c6cnccn6)n(C)c5c4)CCN(C)C3)cc12` [Entry 7061] showed an EC50 of less than 500 nM.

`Cn1c(-c2ccccn2)c(C2CCCC2)c2ccc(C(=O)N[C@@]3(C(=O)Nc4ccc(-c5cnc(N)nc5)cc4)CCNC3)cc21` [Entry 7059] came in with an EC50 of 500 to 5000 nM.

`Cn1c(-c2ccccn2)c(C2CCCC2)c2ccc(C(=O)NC3(C(=O)Nc4ccc(-c5ccc(C(=O)O)o5)cc4)CCC3)cc21` [Entry 7009] came in with an EC50 of less than 500 nM.

With `Cn1c(-c2ccccn2)c(C2CCCC2)c2ccc(C(=O)NC3(C(=O)Nc4ccc5oc(C(=O)O)cc5c4)CCC3)cc21` [Entry 7006], the EC50 is less than 500 nM.

`Cn1c(-c2ccccn2)c(C2CCCC2)c2ccc(C(=O)NC3(C(=O)Nc4ccc(-c5cnc(N)nc5)cc4)CCC3)cc21` [Entry 7065] registered an EC50 of 500 to 5000 nM.

For the molecule `Cn1c(-c2cccc(N)c2)c(C2CCCC2)c2ccc(C(=O)NC3(C(=O)Nc4ccc(-c5ccc(C(=O)O)o5)cc4)CCCC3)cc21` [Entry 7013], the EC50 was less than 500 nM.

`C/C(=C\c1ccc(NC(=O)C2(NC(=O)c3ccc4c(C5CCCC5)c(-c5ccc(C)cn5)n(C)c4c3)CCC2)cc1)C(=O)O` [Entry 7030]: the EC50 is less than 500 nM.

For the molecule `Cn1c(-c2cnccn2)c(C2CCCC2)c2ccc(C(=O)NC3(C(=O)Nc4ccc(-c5ccc(C(=O)O)o5)cc4)CCCC3)cc21` [Entry 7037], the EC50 is less than 500 nM.
